# Measurements as given in PubChem BioAssay (NCATS).
# Where “and” joins values, the source holds several entries; their conditions need not be identical. Equal values may be shown once. This list was built around the results that the source calls inconclusive (neither active nor inactive); the mix of calls is not that of the screen. Potencies beside an inconclusive call are fits to weak or partial responses and may not hold up. Calls of active or inactive are those of the source. Calls follow the shape of the dose curve; as a rule, active = well fitted curve in the direction sought with a large enough effect; inconclusive = small, poorly fitted or top-dose-only effect, or another doubt; inactive = no such curve, though single readings can be large; an effect the other way counts as inactive or inconclusive.
# Key:
# [1] = qHTS of pediatric cancer cell lines to identify multiple opportunities for drug repurposing: Primary screen for OHS-50 cells (AID 1347103); also: nearly all actives have a fitted effect of over 40% in size;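 as to activity change, negative = cytotoxic: plate controls were DMSO neutral control for no effect and bortezomib positive control for full effect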
# Outline: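 Cells (500-1,000/well) rested 5 h, then received compounds for 48 h; metabolically active cells were measured by CellTiter-Glo luminescence. Final concentrations spanned up to 46 µM (MIPE, 11-point) or 0.59 nM-46 µM (NPC, 8-point) in primary screens, 11-point in follow-ups.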
# [2] = qHTS of pediatric cancer cell lines to identify multiple opportunities for drug repurposing: Primary screen for MG 63 (6-TG R) cells (AID 1347105); conditions: MG 63 (6-TG R) viability, CellTiter-Glo, 48 h; activity change, negative = cytotoxic: at 46 µM (top of the series) unless noted; also: nearly all actives have a fitted effect of over 50% in size; as to activity change, negative = cytotoxic: % is scaled to controls: 0 for no effect and ±100 for the full control effect
# Outline: (§1)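 CRCs from 8- or 11-point titrations (lowest final 0.59 nM NPC, 0.78 nM MIPE). Cell viability: CellTiter-Glo after 48 h incubation, 15 min room-temperature development, luminescence imaging.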
# [3] = qHTS of pediatric cancer cell lines to identify multiple opportunities for drug repurposing: Primary screen for control Hh wild type fibroblast cells (AID 1347106); also: nearly all actives have a fitted effect of over 55% in size;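 as to activity change, negative = cytotoxic: % is scaled to controls: 0 for no effect and ±100 for the full control effect; a drop in luminescence marks cytotoxicity and a rise apparent proliferation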
# Outline: (§2)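 Viability after 48 h compound treatment at 37C, 500-1,000 cells/well, read as ATP luminescence with CellTiter-Glo. Primary screens used 11-point (MIPE, 0.78 nM-46 µM) or 8-point (NPC, 0.59 nM-46 µM) final concentrations; follow-up screens used 11-point dilutions.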
# [4] = qHTS of pediatric cancer cell lines to identify multiple opportunities for drug repurposing: Primary screen for Rh30 cells (AID 1347107); also: nearly all actives have a fitted effect of over 75% in size; as to activity change, negative = cytotoxic: % is scaled to controls: 0 for no effect and ±100 for the full control effect
# Outline: as §2
# [5] = qHTS of pediatric cancer cell lines to identify multiple opportunities for drug repurposing: Primary screen for Rh41 cells (AID 1347108); also: nearly all actives have a fitted effect of over 70% in size;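 as to activity change, negative = cytotoxic: luminescence drop marks cytotoxic hits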
# Outline: as §1
# [6] = qHTS of pediatric cancer cell lines to identify multiple opportunities for drug repurposing: Confirmatory screen for NB1643 cells (AID 1347109); also: nearly all actives have a fitted effect of over 45% in size
# Outline: as §2
# [7] = qHTS of pediatric cancer cell lines to identify multiple opportunities for drug repurposing: Confirmatory screen for A673 cells (AID 1347110); also: nearly all actives have a fitted effect of over 65% in size
# Outline: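 Forty-eight-hour viability assay. Follow-up compounds ran at 11-point dilutions; positive control bortezomib at 2.3 uM final, neutral control DMSO.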
# [8] = qHTS of pediatric cancer cell lines to identify multiple opportunities for drug repurposing: Confirmatory screen for SK-N-MC cells (AID 1347111);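 also: cells exposed to compound for 48 h before the readout; nearly all actives have a fitted effect of over 70% in size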;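 as to activity change, negative = cytotoxic: plate controls were DMSO for no effect and bortezomib for full effect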
# Outline: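 SK-N-MC cells at 500-1,000 cells/well in growth media were pre-incubated 5 h, then exposed to compounds at 11-point dilutions for 48 h at 37 degrees C, 5% CO2. Viability was read as CellTiter-Glo luminescence.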
# Potency is read from the fitted curve at half-maximal effect; tags tell the direction and shape of the fitted curve.
compound,measurement,setting,value
Cc1nc(N)sc1-c1ccnc(Nc2ccc(N3CCOCC3)cc2)n1,Potency,[1],active: 3.85 µM
same,Potency,[2],active: 5.9 µM
same,Potency,[3],active: 16.6 µM
same,Potency,[4],"inconclusive: 9.35 µM [cytotoxic, partial curve]"
CC(O)=C(C#N)C(=O)Nc1ccc(C(F)(F)F)cc1,Potency,[1],"inconclusive: 19.3 µM [cytotoxic, partial curve]"
same,Potency,[2],"inconclusive: 7.43 µM [cytotoxic, full curve]"
same,Potency,[4],"inconclusive: 10.5 µM [cytotoxic, partial curve]"
same,Potency,[5],"inconclusive: 7.43 µM [cytotoxic, partial curve]"
C[C@@H]1CN(Cc2ccc(F)cc2)[C@@H](C)CN1C(=O)c1cc2c(C(=O)C(=O)N(C)C)cn(C)c2cc1Cl,Potency,[1],"inconclusive: 1.93 µM [cytotoxic, partial curve]"
same,Potency,[2],"inconclusive: 7.43 µM [cytotoxic, partial curve, poor fit]"
same,Potency,[3],"inconclusive: 29.6 µM [cytotoxic, partial curve, poor fit]"
same,Potency,[4],"inconclusive: 11.8 µM [cytotoxic, partial curve]"
same,Potency,[5],active: 14.8 µM
O=C(O)c1cccnc1Nc1cccc(C(F)(F)F)c1,Potency,[1],inactive
same,"activity change, negative = cytotoxic",[2],inconclusive: -30.3% [cytotoxic]
NC(=O)Cc1cccc(C(=O)c2ccccc2)c1N,Potency,[1],inactive
same,Potency,[5],inactive
Cc1ccc(C(=O)c2ccc(CC(=O)O)n2C)cc1,Potency,[1],inactive
same,Potency,[4],inactive
CCc1ccc(C=C2SC(=S)NC2=O)cc1,Potency,[1],"inconclusive: 27.3 µM [cytotoxic, single point]"
same,Potency,[4],inactive
same,Potency,[5],"inconclusive: 0.296 µM [cytotoxic, partial curve, poor fit]"
O=C(O)Cc1ccc2c(c1)C(=O)c1ccccc1CO2,Potency,[1],inactive
same,Potency,[4],inactive
CC(C)C(=O)Oc1ccc(CO)cc1[C@H](CCN(C(C)C)C(C)C)c1ccccc1,Potency,[1],"inconclusive: 10.9 µM [cytotoxic, partial curve]"
same,Potency,[5],"inconclusive: 14.8 µM [cytotoxic, partial curve, poor fit]"
O=c1cc(-c2ccc(O)cc2)oc2cc(O)cc(O)c12,Potency,[1],active: 3.06 µM
same,Potency,[4],"inconclusive: 5.9 µM [cytotoxic, full curve]"
same,Potency,[5],"inconclusive: 5.9 µM [cytotoxic, partial curve]"
same,Potency,[6],"inconclusive: 6.57 µM [cytotoxic, partial curve, poor fit]"
same,Potency,[7],"inconclusive: 29.3 µM [cytotoxic, single point]"
same,Potency,[8],"inconclusive: 0.928 µM [cytotoxic, full curve]"
CC(C)(C)OC(=O)CN(Cc1ccc(Cl)cc1)Cc1ccc([N+](=O)[O-])s1,Potency,[1],"inconclusive: 24.3 µM [cytotoxic, partial curve]"
same,Potency,[3],inactive
same,Potency,[5],"inconclusive: 18.7 µM [cytotoxic, partial curve, poor fit]"
Oc1ccc(C=Cc2cc(O)cc(O)c2)cc1,Potency,[1],"inconclusive: 17.2 µM [cytotoxic, partial curve]"
same,Potency,[5],inactive
CCCNS(=O)(=O)Nc1ncnc(OCCOc2ncc(Br)cn2)c1-c1ccc(Br)cc1,Potency,[1],inactive
same,Potency,[5],"inconclusive: 2.96 µM [cytotoxic, partial curve, poor fit]"
O[C@@H](COc1cccc2ncccc12)CN1CCN(C2c3ccccc3[C@@H]3[C@H](c4ccccc42)C3(F)F)CC1 (stereo partly specified),Potency,[1],active: 15.5 µM
same,Potency,[4],active: 16.6 µM
same,Potency,[5],active: 18.7 µM
COc1ccc(C=CC(=O)Nc2ccccc2C(=O)O)cc1OC,Potency,[1],inactive
same,Potency,[4],"inconclusive: 11.8 µM [cytotoxic, partial curve, poor fit]"
O=C(N[C@@H](c1ccccc1)[C@@H]1CCCCN1)c1cccc(C(F)(F)F)c1Cl,Potency,[1],"inconclusive: 17.2 µM [cytotoxic, partial curve]"
same,Potency,[3],inactive
same,Potency,[5],"inconclusive: 10.5 µM [cytotoxic, partial curve, poor fit]"
O=S1(=O)c2cccc3cccc(c23)N1CCCN1CCN(c2ccc(F)cc2)CC1,Potency,[1],"inconclusive: 24.6 µM [cytotoxic, partial curve]"
same,Potency,[2],inactive
same,Potency,[5],inactive
Nc1ccc(C(=O)Oc2ccccc2)c(O)c1,Potency,[1],"inconclusive: 27.6 µM [cytotoxic, partial curve, poor fit]"
same,Potency,[5],inactive
COC(=O)/C=C\C(=O)OC,Potency,[1],inactive
same,Potency,[4],inactive
Cc1cc(C=c2sc3nc4ccccc4n3c2=O)c(C)n1-c1ccccc1,Potency,[1],"inconclusive: 6.85 µM [cytotoxic, partial curve]"
same,Potency,[3],inactive
same,Potency,[4],"inconclusive: 18.7 µM [cytotoxic, partial curve, poor fit]"
same,Potency,[5],"inconclusive: 16.6 µM [cytotoxic, partial curve, poor fit]"
CCCCCCOc1ccccc1C(N)=O,Potency,[1],"inconclusive: 30.9 µM [cytotoxic, single point]"
same,Potency,[5],inactive
CC(C)NCC(O)c1ccc(O)c(O)c1 (stereo unspecified),Potency,[1],"inconclusive: 5.44 µM [cytotoxic, full curve]"
same,Potency,[3],inactive
same,Potency,[4],"inconclusive: 5.9 µM [cytotoxic, full curve]"
same,Potency,[7],"inconclusive: 32.9 µM [cytotoxic, single point]"
O=c1cc(-c2ccccc2)oc2ccccc12,Potency,[1],"inconclusive: 28 µM [cytotoxic, partial curve]"
same,Potency,[4],"inconclusive: 30.3 µM [cytotoxic, partial curve, poor fit]"
O=C(O)C=Cc1ccc(O)c(O)c1,Potency,[1],"inconclusive: 38.5 µM [cytotoxic, single point]"
same,Potency,[3],inactive
same,Potency,[4],active: 23.5 µM
same,Potency,[5],"inconclusive: 9.35 µM [cytotoxic, partial curve]"
CO[C@H]1O[C@@H]2O[C@@]3(C)CC[C@@H]4[C@@H](C)CC[C@@H]([C@H]1C)[C@@]24OO3,Potency,[1],"inconclusive: 21.7 µM [cytotoxic, partial curve]"
same,Potency,[4],"inconclusive: 4.18 µM [cytotoxic, partial curve, poor fit]"
same,Potency,[5],inactive
O=C(Nc1ccc(OC(F)(F)F)cc1)c1sccc1NCc1ccnc2ccccc12,Potency,[1],"inconclusive: 19.3 µM [cytotoxic, partial curve]"
same,Potency,[5],"inconclusive: 13.2 µM [cytotoxic, partial curve]"
CCCCCCCCCCCCCCCC(=O)NCCO,Potency,[1],inactive
same,Potency,[3],inactive
Cc1ccc(C(=O)Nc2ccc(S(=O)(=O)O)c3cc(S(=O)(=O)O)cc(S(=O)(=O)O)c23)cc1NC(=O)c1cccc(NC(=O)Nc2cccc(C(=O)Nc3cc(C(=O)Nc4ccc(S(=O)(=O)O)c5cc(S(=O)(=O)O)cc(S(=O)(=O)O)c45)ccc3C)c2)c1,Potency,[1],"inconclusive: 21.7 µM [cytotoxic, partial curve]"
same,Potency,[2],"inconclusive: 1.18 µM [cytotoxic, full curve]"
same,Potency,[5],"inconclusive: 6.62 µM [cytotoxic, partial curve]"
OC(CN1CCC(Cc2ccc(F)cc2)CC1)c1ccc(Cl)cc1 (stereo unspecified),Potency,[1],"inconclusive: 1.95 µM [cytotoxic, partial curve, poor fit]"
same,Potency,[4],inactive
same,Potency,[7],active: 3.69 µM
same,Potency,[8],"inconclusive: 16.5 µM [cytotoxic, partial curve, poor fit]"
COc1ccc(C2Sc3ccccc3N(CCN(C)C)C(=O)C2OC(C)=O)cc1 (stereo unspecified),Potency,[1],inactive
same,Potency,[3],inactive
CC(C)[C@H](CO)Nc1nc(Nc2ccc(C(=O)O)c(Cl)c2)c2ncn(C(C)C)c2n1,Potency,[1],"inconclusive: 43.2 µM [cytotoxic, single point]"
same,Potency,[2],inactive
same,Potency,[5],"inconclusive: 18.7 µM [cytotoxic, partial curve]"
CC(=O)OCC(=O)[C@@]1(O)CC[C@H]2[C@@H]3CCC4=CC(=O)C=C[C@]4(C)[C@H]3[C@@H](O)C[C@@]21C,Potency,[1],"inconclusive: 0.0692 µM [cytotoxic, full curve, poor fit]"
same,Potency,[3],inactive
same,Potency,[4],inactive
same,Potency,[5],inactive
same,Potency,[8],inactive
O=C(O)CCCCCC(=O)NN=C1CCCC1,Potency,[1],inactive
same,Potency,[5],inactive
CCC1(c2ccccc2)C(=O)NCNC1=O,Potency,[1],inactive
same,Potency,[3],"inconclusive: 3.72 µM [cytotoxic, full curve]"
same,Potency,[5],"inconclusive: 29.6 µM [cytotoxic, single point]"
same,Potency,[7],"inconclusive: 4.65 µM [cytotoxic, full curve, poor fit]"
same,Potency,[8],"inconclusive: 11.7 µM [cytotoxic, full curve, poor fit]"
Nc1ccc(-c2ccc3ncc4ccc(=O)n(-c5cccc(C(F)(F)F)c5)c4c3c2)cn1,Potency,[1],active: 0.0069 µM
same,Potency,[3],"inconclusive: 0.0023 µM [cytotoxic, full curve]"
same,Potency,[4],active: 1.66 µM
Clc1ccc(C(Cn2ccnc2)OCc2ccc(Sc3ccccc3)cc2)c(Cl)c1 (stereo unspecified),Potency,[1],"inconclusive: 43.2 µM [cytotoxic, single point]"
same,Potency,[2],"inconclusive: 23.5 µM [cytotoxic, partial curve, poor fit]"
same,Potency,[5],"inconclusive: 14.8 µM [cytotoxic, partial curve]"
same,Potency,[6],"inconclusive: 36.9 µM [cytotoxic, single point]"
COc1ccc(-c2coc3cc(O)cc(O)c3c2=O)cc1,Potency,[1],"inconclusive: 19.3 µM [cytotoxic, partial curve]"
same,Potency,[4],inactive
same,Potency,[8],active: 1.04 µM
CC1=NS(=O)(=O)c2cc(Cl)ccc2N1,Potency,[1],inactive
same,Potency,[3],inactive
Cc1c(OCC(F)(F)F)ccnc1CS(=O)c1nc2ccccc2[nH]1 (stereo unspecified),Potency,[1],"inconclusive: 24.6 µM [cytotoxic, partial curve] and inconclusive: 21.7 µM [cytotoxic, partial curve, poor fit]"
same,Potency,[3],inactive
same,Potency,[5],inactive
